According to patent US20160237160A1, “ANTI-TWEAKR ANTIBODIES AND USES THEREOF” (BAYER PHARMA AKTIENGESELLSCHAFT, priority 2013, published 2016):

Tests used:
[1] = test system: HEK293 cells transfected with a NF-kappaB reporter construct; test: NF-kappaB reporter gene assay; assay type: cell-based; settings: 11 identified antibodies, human IgG1
Experimental: NF-kappaB reporter gene assays were performed to assess the agonistic activity of all 11 identified antibodies (human IgG1). HEK293 cells were transiently transfected with a NF-kappaB reporter construct (BioCat, cat. No. LR-0051-PA) using 293fectin according to manufacturer's instruction. White poly-lysine coated 384well plates (BD) were seeded with transfected cells in F17 media (serum-free; Invitrogen) at 37C, 5% CO2. On the next day cells were stimulated with purified antibodies at different concentrations for 6 h and subsequently a luciferase assay was carried out following standard procedures.

[2] = target: T1, TWEAKR protein (TPP-2305) (Homo sapiens, UniProt Q9NP84); test: Biacore monovalent KD with TWEAKR protein; settings: first order 1:1 binding model
T1 construct: TPP-2305; hTNFRSF12Aaa28-80; Human; 30R-AT080; 168; purchased Fitzgerald Inc 30R-AT080
Experimental: Binding affinities of anti-TWEAKR antibodies were determined by surface plasmon resonance analysis on a Biacore T100 instrument (GE Healthcare Biacore, Inc.). Antibodies were immobilized onto a CM5 sensor chip through an indirect capturing reagent, anti-human IgG(Fc). Reagents from the “Human Antibody Capture Kit” (BR-1008-39, GE Healthcare Biacore, Inc.) were used as described by the manufacturer. Anti-TWEAKR antibodies were injected at a concentration of 10 μg/ml at 10 μl/min for 10 sec.
Sensorgrams were generated after in-line reference cell correction followed by buffer sample subtraction. The dissociation equilibrium constant (KD) was calculated based on the ratio of association (kon) and dissociation rated (koff) constants, obtained by fitting sensorgrams with a first order 1:1 binding model.

B1: TPP-883: anti-TWEAKR human IgG1 from phage display library; heavy chain SEQ ID NO: 72, light chain SEQ ID NO: 71 (antibody, listed as Homo Sapiens)
heavy: EVQLLESGGGLVQPGGSLRLSCAASGFTFSPYPMMWVRQAPGKGLEWVSYISPSGGKTHYADSVKGRFTISRDNSKNTLYLQMNSLRAEDTAVYYCARGGDGYFDYFDYWGQGTLVTVSSASTKGPSVFPLAPSSKSTSGGTAALGCLVKDYFPEPVTVSWNSGALTSGVHTFPAVLQSSGLYSLSSVVTVPSSSLGTQTYICNVNHKPSNTKVDKRV[human IgG1 Fc not shown]
light: AQDIQMTQSPATLSASVGDRVTITCRASQSISSYLNWYQQKPGKAPKLLIYAASSLQSGVPSRFSGSGSGTDFTLTISSLQPEDFATYYCQQSYSSPGITFGPGTKVEIKRTVAAPSVFIFPPSDEQLKSGTASVVCLLNNFYPREAKVQWKVDNALQSGNSQESVTEQDSKDSTYSLSSTLTLSKADYEKHKLYACEVTHQGLSSPVTKSFNRGEC
agonistic activity / in vitro efficacy [1]: strongest in vitro efficacy | ka [2]: 4.4e+06 M⁻¹ s⁻¹ | kd [2]: 0.91 s⁻¹

B2: TPP-2077: anti-TWEAKR human IgG1; heavy chain SEQ ID NO: 52, light chain SEQ ID NO: 51 (antibody, listed as Homo Sapiens)
heavy: EVQLLESGGGLVQPGGSLRLSCAASGFTFSPYPMMWVRQAPGKGLEWVSYISPSGGKTHYADSVKGRFTISRDNSKNTLYLQMNSLRAEDTAVYYCARGGDTYFDYFDYWGQGTLVTVSS[human IgG1 constant region not shown]
light: DIQMTQSPATLSASVGDRVTITCRASQSISSYLNWYQQKPGKAPKLLIYAASSLQSGVPSRFSGSGSGTDFTLTISSLQPEDFATYYCQQSYSSPGITFGPGTKVEIKRTVAAPSVFIFPPSDEQLKSGTASVVCLLNNFYPREAKVQWKVDNALQSGNSQESVTEQDSKDSTYSLSSTLTLSKADYEKHKLYACEVTHQGLSSPVTKSFNRGEC
ka [2]: 3e+06 M⁻¹ s⁻¹ | kd [2]: 0.086 s⁻¹
